# In ChEMBL document CHEMBL4888484, “Replenishing the malaria drug discovery pipeline: Screening and hit evaluation of the MMV Hit Generation Library 1 (HGL1) against asexual blood stage Plasmodium falciparum ,using a nano luciferase reporter read-out” (2022):
# Among all 150,000 compounds or so, about 540 (0.36%) showed an effect of 50% or more. The list shows a part of the results.
# Tested on: Plasmodium falciparum
# Experiment: Primary screen in NF54 nanoGlo assay, in single point, at 2uM, 72h; a lower Z score goes with more inhibition
# Type: functional, Erythrocyte
# Conditions: timepoint 72 hour
Structure (SMILES),% Inhibition,Z score
CCOc1cccc(Cc2noc([C@]3(OC)CCOC3)n2)n1,0%,0.02
Cc1ccccc1Cn1c(NC2CCCCC2)nc2c1c(=O)[nH]c(=O)n2C,-8%,1.29
CCCN1CCN(C(=O)[C@@H]2Cc3[nH]cnc3C3(CCCC3)N2)CC1,-9%,1.46
CCOC(=O)[C@@H]1CCCN(C(=O)Cn2nnc3ccccc32)C1,-6%,1.02
CC(C)c1nn(C)cc1-c1noc([C@@]23CCCC[C@@H]2NCC3)n1,-13%,2.38
CC1CCCC(NC(=O)Nc2cnsc2)C1 (stereo not given),-1%,0.1
C=CCC1(OCc2ccccc2)CCN(C(=O)NCc2cn(C)nc2C)CC1,-2%,0.46
CN1CCN(CC[C@H]2CCCCN2Cc2ccnc3ccccc23)CC1,-8%,1.57
Cc1ccc2nccc(C(=O)N3C[C@H]4CC[C@@H](C3)[C@H]4N(C)C)c2c1,11%,-1.45
O=C(NCCOc1ccc2c(c1)OCO2)C1CCCCC1,-8%,0.73
Cc1ccc(CN2CCNC(=O)[C@@H]2CC(=O)N(Cc2nccn2C)C(C)C)o1,7%,-1.28
CCn1c(N2CCC(C(=O)NC3CCCCCC3)CC2)cc(=O)n(C)c1=O,-3%,0.55
Cc1ccc(C(=O)NCCC(=O)N2CCOC3(CCC3)C2)c(O)c1,4%,-0.4
CCC(OC1CCCC(C)C1)C(=O)Nc1c(C)nn(C)c1OC (stereo not given),-8%,0.82
COC(=O)C1C2CCC(C2)C1NC(=O)c1cccnc1 (stereo not given),-15%,2.92
Nc1ncc2c(n1)CN(C(=O)CC1CC3CCC1C3)CC2 (stereo not given),-13%,1.98
CN(Cc1cnc(N(C)C)s1)CC1CCC1,-9%,1.15
O=C(NCCc1ccc(F)c(Br)c1)NCC(=O)N1CCCC1,0%,0.01
C=C(C)CNC(N)=NCc1cc(Cl)c2c(c1)OCCCO2,13%,-1.28
COCCNC(=O)Nc1ccc2c(c1)C(=O)NCC2,-15%,2.13
Cc1nc(C)c(CN(CCC(N)=O)c2ccc(F)cc2)s1,31%,-3.51
Cc1cc(C)n(-c2ccc(CN3CCC[C@@H]3C(=O)O)cc2)n1,-11%,1.63

Structure (SMILES),% Inhibition,Z score
O=C1Nc2ccc(NC(=O)C(F)(F)F)cc2C1=O,-8%,1.25
Cc1ccnc(N2CC[C@H](Oc3cncc(Br)c3)C2)n1,15%,-1.74
c1ccc2c(-c3csc4nc5ccccc5n34)cccc2c1,-1%,0.08
CC(=O)Nc1ccc(CNC2CCC3CCC2C3)cn1 (stereo not given),1%,-0.26
O=C(NCc1ccco1)[C@H]1CC(=O)N(CCN2CCN(S(=O)(=O)c3ccccc3)CC2)C1,5%,-0.73
Clc1ccc(-c2nc(-c3ccc(-n4cccn4)nc3)no2)s1,-15%,1.6
COC(=O)c1cncc(NCc2cnccc2C)c1,-36%,4.26
O=C1Cc2cc(S(=O)(=O)N3CCN(c4ccccc4)CC3)ccc2N1,-11%,1.49
Cc1cc(NC(=O)[C@H](C)N2CCN(Cc3cccs3)CC2)on1,-4%,0.6
O=C(CCC1CCN(Cc2ccc3nonc3c2)CC1)N1CCOCC1,-1%,0.18
CN1CC[C@H](C(=O)N2CCC(Cc3ccccc3)CC2)CC1=O,-4%,0.55
CCn1nc(C)c2c(C(=O)NC3CC4CCC(C3)N4C)cc(-c3ccc(C)cc3)nc21 (stereo not given),-9%,1.39
Cc1nccn1-c1ccnc(C(=O)NC[C@H]2CCNCC2(F)F)c1,-1%,0.1
Cc1cscc1C(=O)N1CCO[C@@H](CC(=O)O)C1,-1%,0.16
Cc1ccc(C#N)c(N2C[C@@H]3COc4ccccc4C[C@]3(CO)C2)n1,-5%,0.47
Cc1cccc(CNC(=O)c2nn(-c3ccccn3)c3nccc(-c4cccs4)c23)c1,3%,-0.36
O=C1[C@@H]2CC[C@@H](CN(c3ncnc4[nH]cnc34)C2)N1Cc1cscn1,-1%,0.26
Cc1cc(NC(=O)C(=O)NCCc2cccc(O)c2)n(-c2ncccn2)n1,1%,-0.12
CC(CO)(CO)NC(=O)Cc1cc(F)ccc1Br,-7%,0.75
CCOC(=O)NCC#CCOc1cccc(C(F)(F)F)c1,-20%,2.51
COc1ccccc1C(=O)Nc1ccc(N2CCCN(Cc3ccccc3C#N)C2=O)cc1,-12%,1.6
CO[C@H]1[C@@H]2CC[C@H]1CN(C(=O)NCCc1cnn(-c3ccccc3)c1)C2,-3%,0.5

Structure (SMILES),% Inhibition,Z score
O=C(CCc1nc2ccccc2s1)c1ccc(F)cc1,-13%,1.49
CO[C@@H]1CC[C@@]2(OC)CCN(S(=O)(=O)c3cc(F)ccc3C)[C@H]2C1,-1%,0.15
Cc1ccsc1C(=O)NCC1(C)CCOCC1,-6%,1.08
Nc1ccc(C2(c3ccc(N)cc3)c3ccccc3C(=O)c3ccccc32)cc1,18%,-2.61
CN(Cc1cn(C)nn1)C(=O)NCc1nc2ccccc2n1C1CC1,-11%,1.42
CCCOC[C@H]1CCN(c2ncncc2C(=O)O)C1,-3%,0.28
C[C@H]1CCCCN1c1ccc(C(N)=O)cc1NC(=O)c1ncccc1O,-13%,1.43
COc1ccccc1-c1nc(NCCN2CCCCC2)nc2nn(-c3ccccc3)c(N)c12,-5%,0.57
CC1(C2CC2)CCN(C(=O)c2csnn2)CC1,2%,-0.37
C[C@@H](C(=O)NC1(C(=O)O)CCCC1)N(C)C1CCCCC1,1%,-0.11
COC(=O)CCN(C)S(=O)(=O)N1CCC(C)CC1C(C)O (stereo not given),-5%,0.56
C[C@@H](CNC(=O)C1(N2CCOCC2)CCCCC1)Oc1cccnc1,3%,-0.52
CC(C)C[C@H]1C(=O)N2C[C@@H](N(C)C)C[C@H]2CN1C(=O)c1nccc2ccccc12,-11%,1.32
O=C(c1cn2ccccc2n1)N1CCN(S(=O)(=O)c2ccc(Cl)cc2)CC1,-12%,2.48
Cc1nonc1COC(=O)c1nc(C)n2ccccc12,-6%,0.9
CCOC(=O)C(NC(=O)c1cccc[n+]1[O-])C(=O)OCC,-11%,1.74
Cc1cccc(Cn2c(=O)c(C(=O)N3CCOCC3)nn(-c3cccc(F)c3)c2=O)c1,-6%,0.84
CCn1cnc(NC(=O)N2CCC[C@H](C(C)(C)O)C2)n1,-18%,1.74
O=C(Cc1cccc(N(Cc2ccc(F)cc2)C(=O)c2ccc(Cl)cc2)c1)NCc1ccc(F)cc1,-3%,0.53
O=C(O)CN1CCCCC(N2CCCC3(CCCc4ccccc43)C2)C1=O (stereo not given),-7%,1.1
Cc1ccc(-c2nc3cc(C(=O)N4CCC(CC(=O)N5CCCCCC5)CC4)ccc3o2)cc1,-19%,2.26
CCOc1ccc(Cl)cc1CN[C@@H](CC)CO,31%,-3.46

Structure (SMILES),% Inhibition,Z score
Cc1ccccc1OCCn1cc(C(N)=O)c(-c2ccccc2)n1,-6%,0.62
N#Cc1c(NCc2ccco2)ncnc1N1CCCC1,-8%,0.85
Cc1cc(F)ccc1-c1nc(-c2cc(N3CCN(C)CC3)ccn2)no1,-6%,0.59
COc1ccc(-c2nn(-c3ccccc3Cl)c(N)c2NC(=O)NC2CCCCC2)cc1,-8%,1.55
CC(=O)N(Cc1ccc2c(c1)OCO2)c1cccc(-c2nc3ccccc3o2)c1,40%,-5.18
Cc1csc(-c2cc(S(=O)(=O)NC3CCCCC3)cn2CC(=O)N2CCCCC2)n1,-12%,1.38
O=C(N[C@H]1CCOC2(CCCC2)C1)c1ccc2nccnc2n1,-10%,1.3
CC[C@H](Nc1cc([C@H]2C[C@H](N)C2)nc(C2CC2)n1)c1ccccc1,5%,-0.7
CCOc1ccccc1CN(Cc1ccc2nonc2c1)C1CC1,1%,-0.15
CC(C)O[C@H]1CN(C(=O)c2ccc3nc(-c4ccccc4)cn3c2)C[C@@H]1O,-7%,1.09
O=C([C@H]1CCCN(C2CCN(Cc3ccncc3)CC2)C1)N1CCCCCC1,-11%,2.2
O=S(=O)(NCC[C@H]1CN(C2CCCCCC2)CCO1)C1CC1,-2%,0.33
CCn1nc(C=Cc2ccncc2C#N)c2ccccc21,-13%,1.13
Nc1c(Oc2ccccc2F)ncnc1N1CCCC1,10%,-1.7
CC(=O)Nc1cccc(C(=O)N2CCC2)c1,12%,-1.59
Cc1nn(-c2ccccc2)c(Oc2ccccc2)c1CN(CC1CC1)C(=O)c1ccco1,-15%,1.44
Cc1cc(F)ccc1-c1cccc(C(=O)N2C[C@H]3C[C@H](O)[C@H](O)C[C@H]3C2)c1,4%,-0.57
CCN1C(=O)c2cc(NC(=O)c3ccc(C)cc3)ccc2Oc2ccccc21,-3%,0.32
O[C@@H](CNc1ccc(Br)cn1)c1ccncc1,0%,-0.03
